# PubChem BioAssay AID588591 (National Center for Advancing Translational Sciences (NCATS), 2011)
# The campaign covered roughly 390,000 compounds. About 4,700 (1.2%) were called active. Inconclusive results, whose numbers are uncertain, are shown with a selection of clear calls. Calls come from the whole dose curve; as a rule, active = well fitted inhibition curve with a large enough effect; inconclusive = small, poorly fitted or top-dose-only effect, or another doubt; inactive = no such curve, though single readings can be large or run the other way. Potencies beside an inconclusive call are fits to weak or partial responses and may not hold up.
# Molecular target: DNA polymerase eta (Homo sapiens) (UniProt Q9Y253)
# UniProt Q9Y253, sequence (Q9Y253 whole entry, looked up): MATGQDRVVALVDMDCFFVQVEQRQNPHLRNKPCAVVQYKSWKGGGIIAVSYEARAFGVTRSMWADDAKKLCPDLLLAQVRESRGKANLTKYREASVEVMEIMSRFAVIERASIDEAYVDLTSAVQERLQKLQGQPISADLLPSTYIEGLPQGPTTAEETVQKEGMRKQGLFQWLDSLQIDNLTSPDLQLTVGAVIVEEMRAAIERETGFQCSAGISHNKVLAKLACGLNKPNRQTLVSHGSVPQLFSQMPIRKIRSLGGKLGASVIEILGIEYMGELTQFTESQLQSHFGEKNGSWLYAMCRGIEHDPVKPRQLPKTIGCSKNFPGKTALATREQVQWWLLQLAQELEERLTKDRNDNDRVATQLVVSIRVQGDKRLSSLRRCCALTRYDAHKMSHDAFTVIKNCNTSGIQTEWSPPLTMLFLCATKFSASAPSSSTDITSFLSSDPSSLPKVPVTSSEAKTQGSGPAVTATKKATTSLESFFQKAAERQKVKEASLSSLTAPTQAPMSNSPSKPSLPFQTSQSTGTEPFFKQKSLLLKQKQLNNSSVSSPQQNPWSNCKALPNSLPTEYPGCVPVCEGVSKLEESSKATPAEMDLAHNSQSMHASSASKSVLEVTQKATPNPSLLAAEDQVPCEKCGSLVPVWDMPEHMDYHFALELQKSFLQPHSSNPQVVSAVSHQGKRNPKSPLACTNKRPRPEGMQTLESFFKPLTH
# Experiment: qHTS for Inhibitors of Polymerase Eta
# Details: recombinant Pol eta, fluorescent DNA replication assay; series mostly up to 114 µM
# In short: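 Pol eta (10 nM) was preincubated with compounds for 15 min at room temperature, after which fluorescent replication substrate (50 nM final) was added to start the reaction. Fluorescence was read kinetically at 0 and 10 min.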
# Potency is the fitted concentration of half-maximal effect; tags give direction and shape of the fitted curve.
row,SMILES,Potency
1,Cc1nnc(SCC2=C(C(=O)O)N3C(=O)C(NC(=O)c4cc(F)c(F)cc4Cl)C3SC2)s1 (stereo unspecified),active: 20 µM
2,CCOc1ccc2c(O)csc2c1,"inconclusive: 22.4 µM [inhibitor, partial curve, poor fit]"
3,Cc1oc2c(cc(NS(=O)(=O)c3ccc(F)cc3)c3ccccc32)c1C(=O)O,"inconclusive: 31.6 µM [inhibitor, full curve]"
4,COc1ccccc1N1CCN(C(=O)c2cnn(C(C)(C)C)c2C2CCN(C(=O)OC(C)(C)C)CC2)CC1,inactive
5,COc1ccccc1NC(=O)c1cc([N+](=O)[O-])ccc1NCCN1C(=O)CCC1=O,"inconclusive: 15.8 µM [inhibitor, partial curve, poor fit]"
6,O=C(N/N=C/c1cccnc1)c1cc2ccccc2o1,inactive
7,Cc1ccccc1-c1nnc(SCC(=O)N2CCCc3ccccc32)o1,"inconclusive: 100 µM [inhibitor, partial curve, poor fit]"
8,CCOc1ccc(S(=O)(=O)N2CCCCC2)cc1NC(=O)CN1C(=O)NC(C)(c2ccc(C)cc2)C1=O (stereo unspecified),"inconclusive: 31.6 µM [inhibitor, partial curve, poor fit]"
9,Cc1cn(CCOc2ccc(Cl)cc2)c(=O)[nH]c1=O,inactive
10,CN(Cc1ccccc1)c1ccc(N2C(=O)CCCC2=O)cc1[N+](=O)[O-],inactive
11,COCCOc1cc(N2C(=O)CSCC2=O)c(Cl)cc1Cl,inactive
12,COc1ccc(N2CCN(CCCNC(=O)CCC(=O)N3CCOc4ccc(Cl)cc43)CC2)cc1,"inconclusive: 89.1 µM [inhibitor, partial curve, poor fit]"
13,N#Cc1ccsc1NC(=O)CSc1nnc(-c2ccccc2)o1,"inconclusive: 14.1 µM [inhibitor, partial curve, poor fit]"
14,NS(=O)(=O)c1cccc(NC(=O)c2cccs2)c1,"inconclusive: 100 µM [inhibitor, partial curve, poor fit]"
15,COc1cccc(C(=O)NCC(c2ccco2)N2CCc3ccccc3C2)c1 (stereo unspecified),"inconclusive: 3.55 µM [inhibitor, full curve, poor fit]"
16,COC(=O)c1[nH]c2c(c1C)C(=O)CC(c1ccc(OC)c(OC)c1)C2 (stereo unspecified),"inconclusive: 56.2 µM [inhibitor, partial curve, poor fit]"
17,CC(C)Oc1ccc(CNS(=O)(=O)c2csc(C(N)=O)c2)cc1,"inconclusive: 89.1 µM [inhibitor, partial curve, poor fit]"
18,CCOc1ccccc1NC(=O)CCc1nc(-c2cccc(C)c2)no1,inactive
19,CCN(c1ccccc1C(=O)O)S(=O)(=O)c1ccc2[nH]c(=O)[nH]c2c1,"inconclusive: 28.2 µM [inhibitor, partial curve, poor fit]"
20,CCOC(=O)/C(=C\c1ccc(OC(F)F)cc1)C1=Nn2c(nnc2-c2ccc(Cl)cc2)SC1,"inconclusive: 50.1 µM [inhibitor, partial curve]"
21,O=C(c1ccc(Br)cc1)C1CCc2occc2C1=O (stereo unspecified),"inconclusive: 28.2 µM [inhibitor, single point]"
22,CCOC(=O)C(C(=O)OCC)c1cc(Br)c2noc3c2c1C(=O)c1ccccc1-3,active: 8.91 µM

row,SMILES,Potency
1,COc1ccc(COC(=O)c2ccc(Br)c(S(=O)(=O)N3CCOCC3)c2)cc1F,"inconclusive: 31.6 µM [inhibitor, single point]"
2,CN(CCOc1ccccc1)C(=O)CCc1nc2sc3c(c2c(=O)[nH]1)CCCC3,"inconclusive: 22.4 µM [inhibitor, full curve, poor fit]"
3,O=C(O)/C(=C\c1cccc([N+](=O)[O-])c1)c1ccc(S(=O)(=O)N2CCCCC2)s1,"inconclusive: 79.4 µM [inhibitor, partial curve]"
4,Cc1ccc(NC(=O)Cn2nnc(C(=O)NCCc3ccccc3)c2N)c(C)c1,"inconclusive: 28.2 µM [inhibitor, single point]"
5,O=C1/C(=C/c2ccncc2)SC(=S)N1C1CCCCC1,inactive
6,COc1ccc(NC(=O)CSc2nc(-c3ccc(OC)c(OC)c3)[nH]c2-c2ccc(C)cc2)cc1,inactive
7,COc1cccc(NC(=O)Nc2nc(-c3ccc(OC)c(OC)c3)cs2)c1,"inconclusive: 7.94 µM [inhibitor, full curve, poor fit]"
8,COc1ccc(O)c(/C=C(\C#N)C(=O)Nc2cccnc2)c1,"inconclusive: 35.5 µM [inhibitor, partial curve, poor fit]"
9,CSc1ccc(/C=C(\C(=O)O)c2ccc(S(=O)(=O)N3CCCCC3)s2)cc1,"inconclusive: 50.1 µM [inhibitor, partial curve]"
10,O=[N+]([O-])c1ccc(/C=N/Nc2ncccc2[N+](=O)[O-])s1,inactive
11,O=C(O)/C(=C\c1ccc(Cl)c([N+](=O)[O-])c1)c1ccc(S(=O)(=O)N2CCCC2)s1,active: 22.4 µM
12,O=C(N/N=C\c1ccc([N+](=O)[O-])o1)C1COc2ccccc2O1 (stereo unspecified),inactive
13,CC(C)N1CCc2c(sc(NC(=O)CN3C(=O)c4ccccc4C3=O)c2C(N)=O)C1,inactive
14,CCSc1nc2c(c(=O)n(C)c(=O)n2C)n1Cc1ccc(Cl)cc1,"inconclusive: 25.1 µM [inhibitor, single point]"
15,O=C(CSc1ncc(-c2ccccc2)[nH]1)Nc1ccc(F)cc1F,inactive
16,CCOC(=O)c1ccc(CC(=O)c2ccc(O)c(O)c2O)o1,"inconclusive: 3.16 µM [inhibitor, full curve, poor fit]"
17,N#C/C(=C/c1ccc(-c2ccccc2[N+](=O)[O-])o1)C(N)=O,inactive
18,O=C(O)c1ccc(N2C(=O)c3cccc4c(C(=O)O)ccc(c34)C2=O)cc1,active: 3.55 µM
19,CCCc1cc(=O)[nH]c(SCC(=O)N2N=C(c3ccc(Cl)cc3)CC2c2ccco2)n1 (stereo unspecified),"inconclusive: 17.8 µM [inhibitor, full curve, poor fit]"
20,Cc1ccc2nc(NC(=S)NC(=O)c3ccco3)sc2c1,"inconclusive: 25.1 µM [inhibitor, single point]"
21,CCOC(=O)c1cc(S(=O)(=O)N2CCN(c3cccc(OC)c3)CC2)[nH]n1,"inconclusive: 89.1 µM [inhibitor, partial curve]"
22,CC(C)C[C@@H](CNCC(=O)[C@H](CC(=O)O)NC(=O)c1[nH]cnc1C(=O)N[C@H](CN)CC(C)C)NC(=O)c1nc[nH]c1C(=O)N[C@@H](Cc1ccccc1)C(=O)O,"inconclusive: 89.1 µM [inhibitor, partial curve]"

row,SMILES,Potency
1,Cc1nnc(-c2cccc(Br)c2)c2cn(-c3cccc(Br)c3)nc12,"inconclusive: 14.1 µM [inhibitor, partial curve, poor fit]"
2,COc1ccc(C(=O)OCC(=O)NCCCc2ccccc2)c(OC)c1,inactive
3,O=C(NC1=NCCS1)c1ccncc1,"inconclusive: 35.5 µM [inhibitor, partial curve, poor fit]"
4,O=C(c1sc2cc(F)ccc2c1Cl)N1CCN(c2cccc(Cl)c2)CC1,inactive
5,Cc1ccc(S(=O)(=O)N2CCN(C(=S)NCc3ccc4c(c3)OCO4)CC2)cc1,"inconclusive: 2.82 µM [inhibitor, partial curve, poor fit]"
6,CCOC(=O)c1c(NC(=O)C2C3C=CC(C3)C2(C)C(=O)O)sc2c1CCCC2 (stereo unspecified),active: 20 µM
7,COc1cc(/C=C/C(=O)O)cc(S(=O)(=O)Nc2ccc(S(=O)(=O)N3CCCCC3)cc2)c1OC,"inconclusive: 28.2 µM [inhibitor, partial curve, poor fit]"
8,COc1cccc(NC(=O)C2CCCN2S(=O)(=O)c2ccc3nc(-c4ccccc4)[nH]c3c2)c1 (stereo unspecified),"inconclusive: 79.4 µM [inhibitor, single point]"
9,COc1ccc(CC(=O)NCC2COc3ccccc3O2)cc1 (stereo unspecified),"inconclusive: 100 µM [inhibitor, partial curve, poor fit]"
10,Cc1cccc(C(=O)O/N=C2\CCCc3ccccc32)c1,inactive
11,O=[N+]([O-])c1ccccc1N/N=C/c1cccc(O)c1O,inactive
12,Cc1cc(C)c(S(=O)(=O)c2ccccc2C(=O)O)c(C)c1,"inconclusive: 28.2 µM [inhibitor, partial curve]"
13,OC[C@@H]1[C@@H](c2ccc(F)cc2)C(c2ccccc2)=NN1c1ccccc1,inactive
14,O=C(/C=C/c1cn(-c2ccccc2)nc1-c1ccccc1)Nc1ccc(C(=O)O)cc1,"inconclusive: 39.8 µM [inhibitor, partial curve, poor fit]"
15,O=C(O)c1cccc(-n2cccc2/C=C2/NC(=O)N(Cc3ccccc3F)C2=O)c1,active: 20 µM
16,C[N+]1(CC#CC(O)(c2ccccc2)c2ccccc2)CCCC1,"inconclusive: 89.1 µM [inhibitor, single point]"
17,O=C(NCCN1CCCCC1)c1ccc(Cn2c(SCc3ccc(F)cc3)nc3cccnc32)cc1,inactive
18,CC(=O)Nc1ccc(S(=O)(=O)Nc2nc3n(n2)C(c2ccccc2)C=C(c2ccc(Cl)cc2)N3)cc1 (stereo unspecified),"inconclusive: 89.1 µM [inhibitor, single point]"
19,Cc1ccc(C)c(S(=O)(=O)n2nc(C)c(S(=O)(=O)N3CCC(C)CC3)c2C)c1,"inconclusive: 100 µM [inhibitor, partial curve, poor fit]"
20,S=c1[nH]c(-c2ccccc2)cs1,inactive
21,COc1ccccc1OCCn1cc(/C=N/NC(=O)c2ccncc2)c2ccccc21,"inconclusive: 17.8 µM [inhibitor, full curve, poor fit]"
22,CCN(CC)CCNC(=O)/C(=C\c1cccn1C)NC(=O)c1cccs1,"inconclusive: 25.1 µM [inhibitor, single point]"
